Out of some 120,000 compounds screened, about 5,300 (4.4%) were called active. Inconclusive means that the source gave no clear call. Such entries were picked first, then a sample of the others. Calls follow the shape of the dose curve; as a rule, active = well fitted inhibition curve with a large enough effect; inconclusive = small, poorly fitted or top-dose-only effect; inactive = no such curve, though single readings can be large or run the other way. Potencies of inconclusive entries are doubtful fits and often do not repeat.
Assay: qHTS Primary assay for Inhibitors of Plasmodium falciparum Dd2 growth in vitro; also: nearly all actives have a fitted effect of over 65% in size;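 as to activity, negative = inhibition: plate controls were DMSO vehicle for no effect and reference drug for full effect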
Settings: P. falciparum Dd2 growth, SYBR Green, 72 h; activity, negative = inhibition: at 28.9 µM (top of the series) unless noted; series mostly up to 28.9 µM
How it was run: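 Infected erythrocytes (Dd2, 0.3% parasitemia, 2.5% hematocrit final) are added to compound in RPMI-1640/Albumax II medium, grown 72 h at 37C in low oxygen, then lysed with saponin/Triton-X containing SYBR Green and read by fluorescence.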
Potency is read from the fitted curve at half-maximal effect; tags tell the direction and shape of the fitted curve.

| Compound | Potency | activity, negative = inhibition | outcome |
| --- | --- | --- | --- |
| COc1ccc(-n2cc(CN3CCCC(O)C3)c(-c3cccc(F)c3)n2)cc1 (centres undefined) | inconclusive: 8.91 µM [inhibitor, partial curve] |  |  |
| NC(=O)CNC(=O)C1=C[C@@H](NC(=O)c2cccc(F)c2)[C@@H](O)[C@H](O)C1 |  | inactive: 2.55% [at 44.1 µM] |  |
| Cc1ccc(N2CCC(NC(=O)Cc3ccccc3Cl)C2=O)cc1 (centres undefined) | inconclusive: 15.8 µM [inhibitor, single point] |  |  |
| COc1ccc(C)cc1NC(=O)N1CC(c2nnc(-c3ccncc3)o2)C2(CCOCC2)C1 (centres undefined) |  | inactive: -1.89% |  |
| NCC(=O)NC1CC2(CCN(C(=O)c3ccccc3)CC2)c2ccccc21 (centres undefined) |  | inconclusive: -87% [inhibitor] |  |
| CCOc1ccc(-c2cc(NC(=O)Nc3ccc(Cl)cc3)c(C(=O)OC)s2)cc1 | inconclusive: 8.91 µM [inhibitor, partial curve, poor fit] |  |  |
| Cc1ccc(C(=O)N2CCC(N3CCOCC3=O)CC2)cc1 |  | inactive: 0.516% |  |
| CCCn1cnc(NC(=O)NC2CC(C)(C)NC(C)(C)C2)n1 |  | inactive: 0.199% |  |
| COC(=O)c1sc(-c2ccccc2)cc1NC(=O)Nc1ccc(Cl)cc1 | inconclusive: 10 µM [inhibitor, single point] |  |  |
| COc1cccc(N2C(=O)OCC23CCN(Cc2c[nH]c4ccccc24)C3)c1 (centres undefined) | inconclusive: 14.1 µM [inhibitor, single point] |  |  |
| CCOC(=O)C1CCN(C(=O)C2(c3ccc(NS(C)(=O)=O)cc3)CCCCC2)CC1 |  |  | inactive |
| Cc1ccccc1-c1nc(CN2C(=O)CN=C(c3ccccc3)c3ccccc32)c(C)o1 | inconclusive: 11.2 µM [inhibitor, single point] |  |  |
| Cc1ccc(-c2noc(-c3ccccc3NC(=O)C3CC(=O)N(c4ccc(C)cc4)C3)n2)cc1 (centres undefined) | active: 1.41 µM |  |  |
| CNC(=O)[C@@H]1CN(Cc2ccc3c(c2)CCO3)C[C@H]1c1nc(COC)no1 |  | inactive: 23.7% |  |
| COc1cc2nc(Nc3cccc(C)c3)nc(N)c2cc1OC | active: 2.51 µM |  |  |
| CN(C)CCN(C)[C@@H]1[C@H](O)[C@H](CO)O[C@@H]1CNCc1cccc(Cl)c1 |  | inactive: -2.6% |  |
| COc1cccc(CNC(=O)CCCn2ncn3c(cc4occc43)c2=O)c1 |  |  | inactive |
| Cc1nn(-c2ccccc2)c2sc(C(=O)Nc3ccc(Br)cc3)cc12 | inconclusive: 14.1 µM [inhibitor, single point] |  |  |
| CN(C)c1nc2c(c(=O)[nH]1)CCN(Cc1ccc(F)cc1Cl)CC2 | active: 1 µM |  |  |
| COc1ccc(NC(=O)C2(C)CN(C)Cc3ccc(NCc4ccccc4)nc32)cn1 (centres undefined) | inconclusive: 3.98 µM [inhibitor, single point] |  |  |
| Cc1ccc(NC(=O)C(=O)NCC(c2ccc3c(c2)OCO3)N2CCN(C)CC2)c(C)c1 (centres undefined) | inconclusive: 17.8 µM [inhibitor, single point] |  |  |
| COc1cc(CN2C[C@@H](CO)[C@H](c3nc(C)no3)C2)ccc1F | inconclusive: 6.31 µM [inhibitor, partial curve, poor fit] |  |  |

| Compound | Potency | activity, negative = inhibition | outcome |
| --- | --- | --- | --- |
| Cc1ccc(NC(=O)C(Cc2ccccc2)NS(=O)(=O)c2ccc3c(c2)CCC(=O)N3)cc1 (centres undefined) | inconclusive: 2.51 µM [inhibitor, partial curve] |  |  |
| CN(C)c1oc(-c2ccc(COc3ccccc3)o2)nc1C#N |  | inconclusive: -57.1% [inhibitor] [at 0.594 µM] |  |
| COc1ccc(N2CCN(S(=O)(=O)CCNC(=O)c3cc(=O)c4ccccc4o3)CC2)cc1 |  |  | inactive |
| CCn1c(C2CCN(S(=O)(=O)c3ccc(OC)c(OC)c3)CC2)nn(C)c1=O |  | inactive: 18.4% |  |
| O=C([C@@H]1C[C@H](Oc2cccnc2)CN1C(=O)c1ccc2ccccc2n1)N1CCOCC1 |  |  | inactive |
| COc1ccccc1-c1nn2c(=O)cc(CN3CCN(C(=O)COc4ccccc4Cl)CC3)nc2s1 | inconclusive: 10 µM [inhibitor, single point] |  |  |
| CN(C)C[C@H]1C[C@@H](CO)CN(C(=O)c2ccccc2OC(F)(F)C(F)F)C1 | inconclusive: 0.282 µM [inhibitor, full curve, poor fit] |  |  |
| Cc1cc(=O)n(CC(=O)Nc2cccc(Cl)c2)c(N2CCc3ccccc3C2)n1 | inconclusive: 1.41 µM [inhibitor, partial curve, poor fit] |  |  |
| CCc1ccc(NC(=O)CC2C(=O)N(c3ccc(C)cc3)C(=O)N2C2CCCC2)cc1 (centres undefined) | active: 11.2 µM |  |  |
| COCC(=O)N[C@@H]1CN(Cc2ccc(F)cc2Cl)C[C@H]1CO | inconclusive: 11.2 µM [inhibitor, single point] |  |  |
| CC(C)CN1CCC[C@H]1c1nc(-c2ccnc(NS(C)(=O)=O)c2)no1 |  | inactive: 3.73% [at 44.1 µM] |  |
| O=C(CCCc1ccccc1)Nc1cccc(-c2nnc3n2CCCC3)c1 | active: 4.47 µM |  |  |
| Cn1nc(-c2ccc(F)cc2)cc1[C@H]1CN2CC[C@H]1C[C@@H]2CNC(=O)NCc1ccccc1 | inconclusive: 11.2 µM [inhibitor, partial curve, poor fit] |  |  |
| Cc1cc(C(=O)NCC2Cn3cccc3C(=O)N2C)n(C)n1 (centres undefined) |  | inactive: 1.32% |  |
| CCOc1ccccc1N(C)C(=O)Cn1nc(Cc2ccncc2)c2ccccc2c1=O | inconclusive: 17.8 µM [inhibitor, single point] |  |  |
| CC(C)c1nc2c(c(-c3ccc(O)cc3)n1)CN(Cc1cccc3ccccc13)CC2 | inconclusive: 3.98 µM [inhibitor, single point] |  |  |
| CC(=O)N1CCCC2(C1)C(=NC1CCCC1)NC(=O)N2c1cc(F)cc(F)c1 (centres undefined) |  | inactive: -13.3% |  |
| CN1CCN(CCNC(=O)c2cc(-c3ccccc3)cn2C)CC1 | inconclusive: 17.8 µM [inhibitor, single point] |  |  |
| O=C1CCC(C(=O)N2CCCn3nc(C(=O)Nc4ccccc4)cc3C2)=NN1 |  | inactive: -3.65% |  |
| CC(=O)Nc1cccc(Nc2nc3ccccc3n3c(C)nnc23)c1 | inconclusive: 8.91 µM [inhibitor, single point] |  |  |
| Cc1ccc2c(n1)N(C)[C@H](CO)CCN(Cc1ccc(F)c(F)c1)C2 | inconclusive: 8.91 µM [inhibitor, partial curve, poor fit] |  |  |
| COCCOc1ccc(-c2noc([C@@H]3CCCN3C3CCCCC3)n2)cn1 | inconclusive: 10 µM [inhibitor, partial curve, poor fit] |  |  |
